Measured values reported in the supplement of paper PMC4967469.
IC50 is the fitted dose that halves viability relative to control wells, and lower means more sensitive; fits outside the tested doses are given as limits. AUC is the area under the same curve over the 256-fold range up to the top dose, as a fraction; the more sensitive the line, the further below 1. For some assays here: An inferred top dose was derived from the fitted curves, not read from the paper. For some assays here: Drugs with an entry number were screened twice under separate entries, and the two screens often disagree.

Experiments:
Assay in all cases: Viability of human cancer cell lines after 72 h of drug (GDSC screen)
[1] = compound: CN(C)C/C=C/C(=O)Nc1cc2c(Nc3ccc(F)c(Cl)c3)ncnc2cc1O[C@H]1CCOC1 [Afatinib]
Method: (§1)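 Human cancer cell lines in 384-well plates, medium with 10% serum, drug for 72 h over a 256-fold dose range (nine 2-fold or five 4-fold steps up to the top dose). Adherent lines were fixed and stained with the nucleic acid dye Syto60, suspension lines read with resazurin; signal relative to control wells, capped at 0 and 100%. One two-parameter sigmoid per drug and line, fitted in a mixed model over all curves with the slope shared within a line.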

[2] = compound: CC1(C)CC(=O)c2c(C(F)(F)F)nn(-c3ccc(C(N)=O)c(N[C@H]4CC[C@H](O)CC4)c3)c2C1 [SNX-2112]; conditions: top dose 2.56 µM
Method: as §1

[3] = compound: O=C(NC1CC1)c1cccc(-c2ccc3c(NC(=O)C4CC4)n[nH]c3c2)c1 [XMD13-2]; conditions: top dose 10.24 µM; top dose inferred
Method: as §1

[4] = compound: CC[C@]1(O)C[C@@H]2CN(CCc3c([nH]c4ccccc34)[C@@](C(=O)OC)(c3cc4c(cc3OC)N(C)[C@H]3[C@@](O)(C(=O)OC)[C@H](OC(C)=O)[C@]5(CC)C=CCN6CC[C@]43[C@@H]65)C2)C1 [Vinblastine]; conditions: top dose 0.1 µM; top dose inferred
Method: as §1

[5] = compound: CN(c1ncccc1CNc1nc(Nc2ccc3c(c2)CC(=O)N3)ncc1C(F)(F)F)S(C)(=O)=O [PF-562271]; conditions: top dose 2.56 µM; top dose inferred
Method: as §1

[6] = top dose 0.5 µM, screen: GDSC drug entry 1032
[7] = top dose 10 µM, screen: GDSC drug entry 1377, top dose inferred

Cell Line | AUC [1, 6] | IC50 [1, 6] | AUC [1, 7] | IC50 [1, 7] | AUC [2] | IC50 [2] | AUC [3] | IC50 [3] | AUC [4] | IC50 [4] | AUC [5] | IC50 [5]
8-MG-BA (glioma, adherent) | 0.986 | > 0.5 µM | 0.962 | > 10 µM | 0.383 | 0.0778 µM | 0.861 | 7.8 µM | 0.44 | 0.00434 µM | 0.884 | 2.48 µM
22RV1 (prostate, adherent) | 0.981 | > 0.5 µM | 0.954 | > 10 µM | 0.313 | 0.0417 µM | 0.898 | > 10.2 µM | 0.601 | 0.0127 µM | 0.903 | > 2.56 µM
42-MG-BA (glioma, adherent) | 0.984 | > 0.5 µM | 0.974 | > 10 µM | 0.547 | 0.216 µM | 0.94 | > 10.2 µM | 0.568 | 0.00974 µM | 0.895 | > 2.56 µM
201T (lung adenocarcinoma, adherent) | 0.919 | > 0.5 µM |  |  | 0.845 | > 2.56 µM | 0.939 | > 10.2 µM | 0.582 | 0.0111 µM | 0.872 | > 2.56 µM
451Lu (melanoma, adherent) | 0.989 | > 0.5 µM | 0.958 | > 10 µM | 0.844 | 1.71 µM | 0.966 | > 10.2 µM | 0.344 | 0.00236 µM | 0.905 | > 2.56 µM
639-V (bladder, adherent) | 0.962 | > 0.5 µM | 0.965 | > 10 µM | 0.494 | 0.154 µM | 0.987 | > 10.2 µM | 0.449 | 0.00465 µM | 0.913 | > 2.56 µM
647-V (bladder, adherent) | 0.951 | > 0.5 µM | 0.932 | > 10 µM | 0.802 | 1.27 µM | 0.968 | > 10.2 µM | 0.693 | 0.0218 µM | 0.916 | > 2.56 µM
5637 (bladder, adherent) | 0.901 | > 0.5 µM | 0.875 | 8.27 µM | 0.63 | 0.351 µM | 0.886 | 9.43 µM | 0.254 | 0.00134 µM | 0.87 | 2 µM
8305C (thyroid, adherent) | 0.957 | > 0.5 µM | 0.97 | > 10 µM | 0.942 | > 2.56 µM | 0.971 | > 10.2 µM | 0.459 | 0.00468 µM | 0.747 | 1.04 µM
A3-KAW (B-cell lymphoma, suspension) | 0.991 | > 0.5 µM | 0.956 | > 10 µM | 0.266 | 0.0407 µM | 0.874 | 6.61 µM | 0.532 | 0.00749 µM | 0.907 | 2.24 µM
A4-Fuk (B-cell lymphoma, suspension) | 0.973 | > 0.5 µM | 0.966 | > 10 µM | 0.888 | > 2.56 µM | 0.954 | > 10.2 µM | 0.322 | 0.00195 µM | 0.886 | > 2.56 µM
A101D (melanoma, adherent) | 0.975 | > 0.5 µM | 0.966 | > 10 µM | 0.878 | > 2.56 µM | 0.981 | > 10.2 µM | 0.553 | 0.00904 µM | 0.88 | > 2.56 µM
A253 (head and neck, adherent) | 0.949 | > 0.5 µM | 0.941 | > 10 µM | 0.892 | > 2.56 µM | 0.964 | > 10.2 µM | 0.619 | 0.0131 µM | 0.906 | > 2.56 µM
A375 (melanoma, adherent) | 0.99 | > 0.5 µM | 0.99 | > 10 µM | 0.304 | 0.0507 µM | 0.991 | > 10.2 µM | 0.347 | 0.00257 µM | 0.926 | > 2.56 µM
A388 (skin, adherent) | 0.815 | 0.327 µM | 0.879 | > 10 µM | 0.642 | 0.419 µM | 0.938 | > 10.2 µM | 0.569 | 0.00996 µM | 0.959 | > 2.56 µM
A498 (kidney, adherent) | 0.79 | 0.361 µM | 0.965 | > 10 µM | 0.962 | > 2.56 µM | 0.969 | > 10.2 µM | 0.523 | 0.00744 µM | 0.916 | > 2.56 µM
A2058 (melanoma, adherent) | 0.988 | > 0.5 µM | 0.988 | > 10 µM | 0.926 | > 2.56 µM | 0.925 | > 10.2 µM | 0.375 | 0.00295 µM | 0.91 | > 2.56 µM
ACHN (kidney, adherent) | 0.737 | 0.166 µM | 0.379 | 0.277 µM | 0.862 | > 2.56 µM | 0.946 | > 10.2 µM | 0.775 | 0.0451 µM | 0.892 | > 2.56 µM
AGS (stomach, adherent) | 0.974 | > 0.5 µM |  |  | 0.419 | 0.0982 µM | 0.973 | > 10.2 µM | 0.631 | 0.0137 µM | 0.821 | 1.29 µM
ALL-PO (lymphoblastic leukaemia, suspension) | 0.932 | > 0.5 µM | 0.981 | > 10 µM | 0.201 | 0.0196 µM | 0.78 | 4.46 µM | 0.287 | 0.0015 µM | 0.764 | 0.98 µM
ALL-SIL (T-cell leukaemia, suspension) | 0.982 | > 0.5 µM | 0.942 | > 10 µM | 0.292 | 0.0459 µM | 0.439 | 0.447 µM | 0.225 | 0.00115 µM | 0.838 | 1.4 µM
